Reference: US12583836B2 (Anaxis Pharma Pty Ltd, priority 2020, dated 2026)

What was measured:
U937 cells = experiment: Counter screen: cell viability without the TSQ cocktail (CelltiterGlo); set-up: species or system human; conditions: Homo sapiens, U-937, cell viability by CelltiterGlo, read-out: Off-target effect (IC50 cell-based assay)
Protocol: Counter screen: In parallel, all compounds were tested for their ability to affect cell viability. The same U937 cells were treated with compound in DMSO without the TSQ cocktail. This counter screen enabled evaluation of off-target effects. In this case, cell viability was measured by CelltiterGlo.

RIP3 = target: T1, RIP3 (Homo sapiens, UniProt Q9Y572); experiment: KINOMEscan binding assay, RIP3; conditions: equilibrium dissociation constant, class symbols
T1 construct: purchased DiscoverX (KINOMEscan service); host or cells: E. coli BL21-derived (T7 phage) or HEK293
Description: The Hill Slope was set to −1.

RIP1 = target: T2, RIP1 (Homo sapiens, UniProt Q13546); experiment: KINOMEscan binding assay, RIP1; conditions: equilibrium dissociation constant, class symbols
T2 construct: purchased DiscoverX (KINOMEscan service); host or cells: E. coli BL21-derived (T7 phage) or HEK293
T2 sequence (Q13546 1-671): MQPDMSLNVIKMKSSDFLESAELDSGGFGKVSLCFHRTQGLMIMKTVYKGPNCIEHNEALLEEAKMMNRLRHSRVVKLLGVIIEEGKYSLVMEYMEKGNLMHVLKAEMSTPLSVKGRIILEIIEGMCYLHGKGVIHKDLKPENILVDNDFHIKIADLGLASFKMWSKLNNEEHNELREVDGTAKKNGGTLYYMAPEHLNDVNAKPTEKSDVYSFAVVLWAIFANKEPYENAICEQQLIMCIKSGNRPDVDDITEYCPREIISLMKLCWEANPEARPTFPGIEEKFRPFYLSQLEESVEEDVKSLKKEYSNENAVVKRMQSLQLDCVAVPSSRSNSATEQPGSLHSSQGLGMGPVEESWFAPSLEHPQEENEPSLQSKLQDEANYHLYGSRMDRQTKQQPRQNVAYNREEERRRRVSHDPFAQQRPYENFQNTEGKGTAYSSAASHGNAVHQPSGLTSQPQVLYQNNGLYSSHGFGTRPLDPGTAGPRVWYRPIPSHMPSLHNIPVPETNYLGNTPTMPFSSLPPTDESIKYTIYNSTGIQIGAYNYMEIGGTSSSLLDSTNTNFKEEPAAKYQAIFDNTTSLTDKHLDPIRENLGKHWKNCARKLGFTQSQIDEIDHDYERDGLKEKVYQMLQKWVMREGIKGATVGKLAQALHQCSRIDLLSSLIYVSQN

[1] = tested on: U937 human histiocytic leukemia cell line; experiment: Inhibition of TSQ induced necroptosis, 384 well plate format (CellTitre-Glo); conditions: Homo sapiens, U-937; U937 cells, TSQ cocktail (TNF, Smac mimetic, Q-VD-OPh), CelltiterGlo; read-out: Inhibition of TSQ-induced necroptosis (IC50 cell-based assay)
How it was run: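 Necroptosis was induced in U937 cells (20,000/well) by hTNF-Fc 100 ng/ml, Smac mimetic 500 nM and Q-VD-OPh 10 μM for 48 h at 37 °C. Compounds were run as a 10-point 1:3 series from 36 μM in 0.3% DMSO. Viability was read by CellTiter-Glo luminescence (DMSO = 100%, DMSO+TSQ = 0%), and IC50 was taken from a 4-parameter fit.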

T1 sequence (Q9Y572 whole entry): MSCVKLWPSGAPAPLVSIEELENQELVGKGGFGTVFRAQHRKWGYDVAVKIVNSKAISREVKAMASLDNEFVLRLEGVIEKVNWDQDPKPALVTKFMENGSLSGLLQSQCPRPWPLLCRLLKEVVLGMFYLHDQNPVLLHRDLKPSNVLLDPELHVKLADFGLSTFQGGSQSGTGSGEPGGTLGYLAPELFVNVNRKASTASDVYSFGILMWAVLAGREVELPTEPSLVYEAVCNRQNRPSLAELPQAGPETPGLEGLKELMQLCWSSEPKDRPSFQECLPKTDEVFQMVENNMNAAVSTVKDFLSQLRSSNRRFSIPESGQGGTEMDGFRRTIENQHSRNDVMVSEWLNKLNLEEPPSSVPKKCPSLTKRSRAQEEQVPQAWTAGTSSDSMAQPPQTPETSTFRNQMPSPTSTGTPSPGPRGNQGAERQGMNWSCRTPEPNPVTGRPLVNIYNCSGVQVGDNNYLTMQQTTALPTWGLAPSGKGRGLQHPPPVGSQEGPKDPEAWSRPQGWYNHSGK

Kd (RIP3) [µM]	Kd (RIP1) [µM]	SMILES	IC50 (U937 cells) [µM]	IC50 [1] [µM]
> 30	> 30	C[C@H](Oc1cc(-c2n[nH]c(Nc3cc(C(F)F)on3)c2C(N)=O)ccc1NS(=O)(=O)C(F)F)c1ccc(F)cc1 [Compound 314, (S)-5-((5-(difluoromethyl)isoxazol-3-yl)amino)-3-(4-((difluoromethyl)sulfonamido)-3-(1-(4-fluorophenyl)ethoxy)phenyl)-1H-pyrazole-4-carboxamide]	> 30	0.01 to 1
> 30	> 30	C[C@H](Oc1cc(-c2n[nH]c(Nc3cccc(C(F)(F)F)n3)c2C(N)=O)ccc1NS(=O)(=O)CC(F)(F)F)c1ccc(F)cc1 [Compound 249, 3-{3-[(1S)-1-(4-fluorophenyl)ethoxy]-4-(2,2,2-trifluoroethane-sulfonamido)phenyl}-5-{[6-(trifluoromethyl)pyridin-2-yl]amino}-1H-pyrazole-4-carboxamide]	> 30	1 to 30
> 30	> 30	NC(=O)c1c(-c2ccc(NS(=O)(=O)C(F)F)c(OCc3ccc(Cl)cc3)c2)n[nH]c1Nc1cnc(C(F)(F)F)cn1 [Compound 235, 3-(3-((4-chlorobenzyl)oxy)-4-((difluoromethyl)sulfonamido)phenyl)-5-((5-(trifluoromethyl)pyrazin-2-yl)amino)-1H-pyrazole-4-carboxamide]	> 30	0.01 to 1
> 30	> 30	CC(Oc1cc(-c2n[nH]c(Nc3cnccn3)c2C(N)=O)ccc1NS(=O)(=O)C(F)F)c1ncco1 (racemic) [Compound 293, 3-(4-((difluoromethyl)sulfonamido)-3-(1-(oxazol-2-yl)ethoxy)phenyl)-5-(pyrazin-2-ylamino)-1H-pyrazole-4-carboxamide]	> 30	0.01 to 1
> 30	> 30	Cc1cnc(Nc2[nH]nc(-c3ccc(NS(=O)(=O)CC(F)(F)F)c(OCc4ccc(Cl)cc4)c3)c2C(N)=O)cn1 [Compound 162, 3-(3-((4-chlorobenzyl)oxy)-4-((2,2,2-trifluoroethyl)sulfonamido)phenyl)-5-((5-methylpyrazin-2-yl)amino)-1H-pyrazole-4-carboxamide]	> 30	0.01 to 1
> 30	> 30	CCS(=O)(=O)Nc1ccc(-c2n[nH]c(Nc3cnccn3)c2C(N)=O)cc1OCc1cccc(C(F)(F)F)c1 [Compound 218, 3-(4-(ethylsulfonamido)-3-((3-(trifluoromethyl)benzyl)oxy)phenyl)-5-(pyrazin-2-ylamino)-1H-pyrazole-4-carboxamide]	–	–
> 30	> 30	NC(=O)c1c(-c2ccc(NS(=O)(=O)C(F)F)c(Oc3ccc(F)cc3)c2)n[nH]c1Nc1cnccn1 [Compound 177, 3-(4-((difluoromethyl)sulfonamido)-3-(4-fluorophenoxy)phenyl)-5-(pyrazin-2-ylamino)-1H-pyrazole-4-carboxamide]	–	–
> 30	> 30	CCS(=O)(=O)Nc1ccc(-c2n[nH]c(Nc3cccc(C(F)F)n3)c2C(N)=O)cc1OCc1ccc(F)cc1 [Compound 179, 5-((6-(difluoromethyl)pyridine-2-yl)amino)-3-(4-(ethylsulfonamido)-3-((4-fluorobenzyl)oxy)phenyl)-1H-pyrazole-4-carboxamide]	–	–
> 30	> 30	CCS(=O)(=O)Nc1ccc(-c2n[nH]c(Nc3cnccn3)c2C(N)=O)cc1OCc1cccnc1 [Compound 32, 3-(4-(ethylsulfonamido)-3-(194yridine-3-ylmethoxy)phenyl)-5-(pyrazin-2-ylamino)-1H-pyrazole-4-carboxamide]	–	–
> 30	> 30	C[C@@H](Oc1cc(-c2n[nH]c(Nc3cnccn3)c2C(N)=O)ccc1NS(=O)(=O)C(F)F)c1ncco1 (single isomer, unassigned) [Compound 280]	–	–
1 to 30	> 30	NC(=O)c1c(-c2ccc(NS(=O)(=O)Cc3ccc(Cl)c(Cl)c3)cc2)n[nH]c1Nc1cccc(C(F)(F)F)n1 [Compound 56, 3-(4-((3,4-dichlorophenyl)methylsulfonamido)phenyl)-5-((6-(trifluoromethyl)pyridin-2-yl)amino)-1H-pyrazole-4-carboxamide]	–	–

Further lines, the molecule ahead of its results:

SMILES	Kd (RIP3) [µM]	Kd (RIP1) [µM]	IC50 (U937 cells) [µM]	IC50 [1] [µM]
NC(=O)c1c(-c2ccc(NS(=O)(=O)CC(F)(F)F)cc2)n[nH]c1Nc1cccc(C(F)(F)F)n1 [Compound 43, 3-(4-((2,2,2-trifluoroethyl)sulfonamido)phenyl)-5-((6-(trifluoromethyl)pyridin-2-yl)amino)-1H-pyrazole-4-carboxamide]	1 to 30	> 30	> 30	0.01 to 1
CCS(=O)(=O)Nc1ccc(-c2n[nH]c(Nc3ccc(OC)nc3)c2C(N)=O)cc1 [Compound 115, 3-(4-(ethylsulfonamido)phenyl)-5-((6-methoxypyridin-3-yl)amino)-1H-pyrazole-4-carboxamide]	> 30	1 to 30	> 30	1 to 30
CCS(=O)(=O)Nc1ccc(-c2n[nH]c(Nc3cnc(OC)cn3)c2C(N)=O)cc1 [Compound 90, 3-(4-(ethylsulfonamido)phenyl)-5-((5-methoxypyrazin-2-yl)amino)-1H-pyrazole-4-carboxamide]	> 30	> 30	> 30	1 to 30
CCS(=O)(=O)Nc1ccc(-c2n[nH]c(Nc3ccccc3)c2C(N)=O)cc1 [Compound 124, 3-(4-(ethylsulfonamido)phenyl)-5-(phenylamino)-1H-pyrazole-4-carboxamide]	> 30	> 30	> 30	1 to 30
CCS(=O)(=O)Nc1ccc(-c2n[nH]c(Nc3cnccn3)c2C(N)=O)c(OCc2cccc(F)c2)c1 [Compound 208, 3-(4-(ethylsulfonamido)-2-((3-fluorobenzyl)oxy)phenyl)-5-(pyrazin-2-ylamino)-1H-pyrazole-4-carboxamide]	> 30	> 30	> 30	1 to 30
CCS(=O)(=O)Nc1ccc(-c2n[nH]c(Nc3cnccn3)c2C(N)=O)cc1O[C@@H](C)c1ccc(F)cc1 [Compound 199, (S)-3-(4-(ethylsulfonamido)-3-(1-(4-fluorophenyl)ethoxy)phenyl)-5-(pyrazin-2-ylamino)-1H-pyrazole-4-carboxamide]	> 30	> 30	> 30	0.01 to 1
CCS(=O)(=O)Nc1ccc(-c2n[nH]c(Nc3ccccn3)c2C(N)=O)c(OCc2ccc(F)cc2)c1 [Compound 201]	> 30	> 30	–	–
NC(=O)c1c(-c2ccc(NS(=O)(=O)CCc3ccccc3)cc2)n[nH]c1Nc1ccccn1 [Compound 130, 3-(4-((2-phenylethyl)sulfonamido)phenyl)-5-(pyridin-2-ylamino)-1H-pyrazole-4-carboxamide]	1 to 30	> 30	–	–
NC(=O)c1c(-c2ccc(NS(=O)(=O)Cc3ccccc3)cc2)n[nH]c1Nc1cnccn1 [Compound 77, 3-(4-((phenylmethyl)sulfonamido)phenyl)-5-(pyrazin-2-ylamino)-1H-pyrazole-4-carboxamide]	1 to 30	> 30	–	–
NC(=O)c1c(-c2ccc(NS(=O)(=O)CCC(F)(F)F)cc2)n[nH]c1Nc1cccc(C(F)(F)F)n1 [Compound 189, 5-((6-(trifluoromethyl)pyridine-2-yl)amino)-3-(4-((3,3,3-trifluoropropyl)sulfonamido)phenyl)-1H-pyrazole-4-carboxamide]	1 to 30	> 30	–	–
CCS(=O)(=O)Nc1ccc(-c2n[nH]c(Nc3cnccn3)c2C(N)=O)cc1OC(C)(C)c1ccc(F)cc1 [Compound 228, 3-(4-ethanesulfonamido-3-{[2-(4-fluorophenyl)propan-2-yl]oxy}phenyl)-5-[(pyrazin-2-yl)amino]-1H-pyrazole-4-carboxamide]	> 30	> 30	–	–
NC(=O)c1c(-c2ccc(NS(=O)(=O)C3CC3)cc2)n[nH]c1Nc1cccc(C(F)(F)F)n1 [Compound 52, 3-(4-(cyclopropanesulfonamido)phenyl)-5-((6-(trifluoromethyl)pyridin-2-yl)amino)-1H-pyrazole-4-carboxamide]	1 to 30	> 30	–	–
